Experimental data: the supplement of paper PMC6089552
The campaign covered roughly 3,200 compounds. About 300 (9.4%) showed activity. Only a part is listed here, and it is no random draw.

System: A673/TR/shEF
Assay: cell viability (LOESS-normalised, relative to median of negative controls) (log2 ratio); higher = more viable cells (less compound effect), active = hit call of the paper (over 3 MAD below the median)
Conditions: treatment time: 72 h
In short: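 A673/TR/shEF Ewing sarcoma cells (1,500 per well, 384-well plates) were grown with or without doxycycline to induce EWS-FLI1 shRNA knockdown, starting 24 h before compounds. Library compounds at two or more concentrations, with DMSO controls, were added for three days. Cell viability was read by CellTiter-Glo luminescence on an Envision reader, then LOESS-corrected per plate, divided by the median of negative controls and log2-transformed. Hits were wells at least three median absolute deviations from the median of all screened wells.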

[1] = 0.25 µM, library screen: screen1, EWS-FLI1 expression: high (no doxycycline)
[2] = 0.25 µM, library screen: screen1, EWS-FLI1 expression: low (doxycycline-induced shRNA knockdown)
[3] = 2.5 µM, library screen: screen1, EWS-FLI1 expression: high (no doxycycline)
[4] = 2.5 µM, library screen: screen1, EWS-FLI1 expression: low (doxycycline-induced shRNA knockdown)
[5] = 0.25 µM, library screen: screen2, EWS-FLI1 expression: high (no doxycycline)
[6] = 0.25 µM, library screen: screen2, EWS-FLI1 expression: low (doxycycline-induced shRNA knockdown)
[7] = 2.5 µM, library screen: screen2, EWS-FLI1 expression: high (no doxycycline)
[8] = 2.5 µM, library screen: screen2, EWS-FLI1 expression: low (doxycycline-induced shRNA knockdown)
[9] = 0.103 µM, library screen: screen3, EWS-FLI1 expression: high (no doxycycline)
[10] = 0.103 µM, library screen: screen3, EWS-FLI1 expression: low (doxycycline-induced shRNA knockdown)
[11] = 0.308 µM, library screen: screen3, EWS-FLI1 expression: high (no doxycycline)
[12] = 0.308 µM, library screen: screen3, EWS-FLI1 expression: low (doxycycline-induced shRNA knockdown)
[13] = 0.926 µM, library screen: screen3, EWS-FLI1 expression: high (no doxycycline)
[14] = 0.926 µM, library screen: screen3, EWS-FLI1 expression: low (doxycycline-induced shRNA knockdown)
[15] = 2.8 µM, library screen: screen3, EWS-FLI1 expression: high (no doxycycline)
[16] = 2.8 µM, library screen: screen3, EWS-FLI1 expression: low (doxycycline-induced shRNA knockdown)
[17] = 8.3 µM, library screen: screen3, EWS-FLI1 expression: high (no doxycycline)
[18] = 8.3 µM, library screen: screen3, EWS-FLI1 expression: low (doxycycline-induced shRNA knockdown)
[19] = 25 µM, library screen: screen3, EWS-FLI1 expression: high (no doxycycline)
[20] = 25 µM, library screen: screen3, EWS-FLI1 expression: low (doxycycline-induced shRNA knockdown)

Measured: cell viability (log2)

CCSc1nnc(-c2ccc([N+](=O)[O-])cc2)n1-c1ccccc1
inactive: [1] 0.0862 | [2] 0.0888 | [3] 0.0629 | [4] 0.153

O=C(CCc1ccc(O)cc1)c1c(O)cc(O)cc1O[C@@H]1O[C@H](CO)[C@@H](O)[C@H](O)[C@H]1O
inactive: [1] 0.0367 | [2] -0.0139 | [3] 0.0924 | [4] -0.0379

S=C(S)OC1CC2CC1C1CCCC21 (centres undefined)
inactive: [5] 0.138 | [6] 0.0575 | [8] 0.124
0.328: [7]

COc1ccc(CN2CCN(Cc3cccc([N+](=O)[O-])c3)CC2)cc1OC
inactive: [1] 0.0511 | [2] 0.032 | [3] 0.111 | [4] 0.138

CNCCCC1c2ccccc2C=Cc2ccccc21
inactive: [5] 0.186 | [6] 0.0526 | [7] 0.166 | [8] 0.0326

CCN1CCC[C@H]1CNC(=O)c1c(OC)ccc(I)c1O
inactive: [5] 0.251 | [6] 0.174 | [7] 0.0364 | [8] 0.15

C[C@]12CCC(=O)C=C1CC[C@@H]1[C@@H]2[C@@H](O)C[C@@]2(C)[C@H]1CC[C@]2(O)C(=O)CO
inactive: [9] 0.107 | [10] -0.0348 | [1] 0.135 | [2] -0.115 | [5] 0.174 | [6] 0.0437 | [11] 0.088 | [12] 0.0811 | [13] 0.0504 | [14] 0.0535 | [3] 0.105 | [4] -0.0583 | [7] 0.0143 | [8] 0.118 | [15] 0.122 | [16] 0.0605 | [17] 0.0545 | [18] 0.0667 | [19] 0.0715 | [20] 0.184

COc1ccc(CCN(C)CCCC(C#N)(c2ccc(OC)c(OC)c2)C(C)C)cc1OC (centres undefined)
inactive: [1] 0.0596 | [2] -0.0063 | [5] 0.149 | [6] 0.082 | [3] 0.0625 | [4] 0.124 | [7] 0.0425 | [8] 0.123

Cc1onc(-c2ccccc2)c1-c1ccc(S(N)(=O)=O)cc1
inactive: [1] 0.0303 | [2] -0.049 | [3] 0.0231 | [4] 0.0913

CCCc1cc(=O)[nH]c(=S)[nH]1
inactive: [1] -0.0121 | [2] 0.118 | [3] 0.116 | [4] 0.125

C[N+]1(CCCCC[N+]2(C)CCCC2)CCCC1
inactive: [1] 0.0238 | [2] 0.0337 | [5] 0.156 | [6] 0.0846 | [3] 0.121 | [4] 0.0345 | [7] 0.163 | [8] 0.0884

O=C(Nc1ccccc1)c1cc([N+](=O)[O-])ccc1Cl
inactive: [5] 0.158 | [6] 0.0928 | [7] 0.158 | [8] 0.106

CO/N=C(\C(=O)N[C@@H]1C(=O)N2C(C(=O)OCOC(=O)C(C)(C)C)=C(/C=C\c3scnc3C)CS[C@H]12)c1csc(N)n1
inactive: [9] 0.00133 | [10] 0.0197 | [11] 0.0394 | [12] 0.0454 | [13] 0.0372 | [14] 0.00912 | [15] 0.0102 | [16] -0.00348 | [17] 0.0518 | [18] 0.0133 | [19] -0.0149 | [20] 0.0407

Cn1cnc2nc(NCCO)nc(NCc3ccccc3)c21
inactive: 0.025 µM, library screen: screen1, EWS-FLI1 expression: high (no doxycycline) 0.128 | 0.025 µM, library screen: screen1, EWS-FLI1 expression: low (doxycycline-induced shRNA knockdown) 0.0359 | [1] 0.0849 | [2] 0.00162 | [3] -0.0202 | [4] 0.00254 | 25 µM, library screen: screen1, EWS-FLI1 expression: high (no doxycycline) 0.0813 | 25 µM, library screen: screen1, EWS-FLI1 expression: low (doxycycline-induced shRNA knockdown) 0.0973

COc1c2ccoc2c(OC)c2oc(=O)ccc12
inactive: [1] 0.157 | [2] -0.0309 | [3] 0.197 | [4] 0.0899

COc1ccc([C@@H]2CC(=O)c3c(O)cc(O[C@@H]4O[C@H](CO[C@@H]5O[C@@H](C)[C@H](O)[C@@H](O)[C@H]5O)[C@@H](O)[C@H](O)[C@H]4O)cc3O2)cc1O
inactive: [1] 0.189 | [2] 0.144 | [3] 0.16 | [4] 0.172

CC(C)(C(=O)O)c1ccc(C(O)CCCN2CCC(C(O)(c3ccccc3)c3ccccc3)CC2)cc1 (centres undefined)
inactive: [1] 0.00879 | [2] 0.0307 | [5] 0.284 | [6] 0.097 | [3] 0.0359 | [4] 0.0422 | [7] 0.192 | [8] 0.139

Cc1cc(C(C)(C)C)c(O)c(C)c1CC1=NCCN1
inactive: [9] 0.0927 | [10] 0.118 | [1] 0.102 | [2] 0.143 | [5] 0.2 | [6] 0.136 | [11] 0.116 | [12] 0.0968 | [13] 0.0883 | [14] 0.0478 | [3] 0.125 | [4] 0.241 | [7] 0.15 | [8] 0.0298 | [15] 0.124 | [16] 0.0935 | [17] 0.094 | [18] 0.063 | [19] 0.112 | [20] 0.066

NC(Cc1ccc(Cl)cc1)C(=O)O (centres undefined)
inactive: [1] 0.0377 | [2] 0.114 | [5] 0.187 | [6] 0.149 | [3] 0.0986 | [4] 0.0294 | [7] 0.0837 | [8] 0.083

CCCCS(=N)(=O)CC[C@H](N)C(=O)O (some centres undefined)
inactive: [5] 0.282 | [6] 0.133 | [7] 0.123 | [8] -0.00331

CC(=O)OC1CCC2(C)C(CCC3C2CCC2(C)C3CC3OC4(CCC(C)CO4)C(C)C32)C1 (centres undefined)
inactive: [1] 0.0872 | [2] 0.0698 | [3] 0.151 | [4] 0.0624

CN(C)CCCN1c2ccccc2Sc2ccccc21
active: [7] -1.62 | [8] -0.801

Fc1cccc(CN(C2=NCCN2)c2c(Cl)cccc2Cl)c1
inactive: [5] 0.243 | [6] 0.118 | [7] 0.138 | [8] 0.0968

C[N+]1(C)C[C@H](O)C[C@H]1C(=O)[O-]
inactive: [1] 0.068 | [2] -0.00246 | [3] 0.0629 | [4] 0.0874

CC1C(=O)CC2CC1C2(C)C (centres undefined)
inactive: [2] 0.0655 | [3] 0.091 | [4] 0.103
active: [1] -0.106

COC(=O)C[C@H](NC(=O)[C@H](C)NC(=O)[C@@H](NC(=O)OCc1ccccc1)C(C)C)C(=O)CF
inactive: [1] 0.0634 | [2] 0.0507 | [3] 0.0598 | [4] -0.112

CC(=O)Nc1ccccc1
inactive: [1] 0.117 | [2] 0.042 | [3] 0.102 | [4] -0.0494

CSc1ccc2c(c1)C(N1CCN(C)CC1)Cc1ccccc1S2 (centres undefined)
inactive: [5] 0.228 | [6] 0.154 | [7] 0.066 | [8] 0.0449

COc1ccc(-c2cc(=O)c3c(O)cc(O)c(-c4cc(-c5cc(=O)c6c(O)cc(O)cc6o5)ccc4OC)c3o2)cc1
inactive: [1] 0.0752 | [2] 0.0482 | [3] 0.146 | [4] 0.173

COc1ccc2c(=O)c(-c3cc4c(cc3OC)OCO4)coc2c1
inactive: [1] 0.0588 | [2] -0.078 | [3] 0.0766 | [4] 0.0171

COc1ccc2c(c1)OC1(O)COc3cc(OC)c(OC)cc3C1=C2 (centres undefined)
inactive: [1] 0.0744 | [2] -0.083 | [3] 0.152 | [4] 0.0705

C=Cc1c(C)c2cc3[nH]c(cc4nc(cc5nc(cc1[nH]2)C(C)=C5CCC(=O)O)C(CCC(=O)O)=C4C)c(C)c3C=C
inactive: [1] 0.241 | [2] 0.181 | [5] 0.253 | [6] 0.0373 | [3] 0.249 | [4] 0.148 | [7] 0.218 | [8] 0.0628

COC(=O)C1=C(C)NC(C)=C(C(=O)OCCN2CCN(C(c3ccccc3)c3ccccc3)CC2)C1c1cccc([N+](=O)[O-])c1 (centres undefined)
inactive: [9] 0.0343 | [10] 0.0779 | [11] 0.0955 | [12] 0.0663 | [13] 0.0726 | [14] 0.0664 | [15] 0.0776 | [16] 0.076 | [17] 0.0995 | [18] 0.0224 | [19] 0.0177 | [20] 0.00217

CN1CCc2cc(O)c(O)cc2C(c2ccccc2)C1 (centres undefined)
inactive: [5] 0.175 | [6] 0.093 | [7] 0.236 | [8] 0.101

CCCCCCc1ccc(O)cc1O.Nc1c2ccccc2nc2ccccc12
inactive: [1] 0.0435 | [2] -0.00183 | [3] -0.0147 | [4] -0.0672

CCCCOCCOC(=O)CCCOc1ccc(Cl)cc1Cl
inactive: [1] 0.0256 | [2] 0.038 | [3] 0.0946 | [4] 0.127

O=C1[C@H](Cc2ccc(O)cc2)N2C(=O)CCN(C(=O)NCc3ccccc3)[C@H]2CN1Cc1cccc2ccccc12
active: [19] -1.07 | [20] -1.18
inactive: [9] -0.0101 | [10] 0.068 | [11] 0.0453 | [12] 0.0327 | [13] 0.0157 | [14] 0.0736 | [15] 0.0365 | [16] 0.0441 | [17] -0.0756 | [18] -0.205

O=C(O)c1cccnc1Nc1cccc(C(F)(F)F)c1
inactive: [1] 0.0115 | [2] -0.00562 | [5] 0.155 | [6] 0.165 | [3] 0.168 | [4] 0.0617 | [7] 0.0841 | [8] 0.119
